According to US20220403048A1, “BINDING MOLECULES TO ARGINASE II [ARG2]” (Cancer Research Technology Limited, priority 2019, published 2022):

Molecular target: T1, human ARG2 (Homo sapiens, UniProt P78540)
T1 construct: made in house
T1 sequence (P78540 with tags, fused parts or gaps): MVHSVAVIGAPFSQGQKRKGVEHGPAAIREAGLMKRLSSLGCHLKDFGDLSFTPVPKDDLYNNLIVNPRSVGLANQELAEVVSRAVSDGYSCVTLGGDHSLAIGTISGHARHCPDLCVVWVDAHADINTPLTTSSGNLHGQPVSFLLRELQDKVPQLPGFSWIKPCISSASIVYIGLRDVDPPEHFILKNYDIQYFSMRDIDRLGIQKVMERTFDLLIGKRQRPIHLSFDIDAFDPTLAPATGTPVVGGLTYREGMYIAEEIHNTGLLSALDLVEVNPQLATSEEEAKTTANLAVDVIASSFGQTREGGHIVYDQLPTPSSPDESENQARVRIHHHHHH
Assay: X-ray co-crystal structures of ARG2-Fab complexes, buried surface area of epitope residues
Details: total of interface residues; C0020187 complex
Experimental: The construct used for crystal trials was ARG2 (23-354) containing a C-terminal Gly3 linker and His10-tag (ARG2+C0020187, SEQ ID NO: 355: huARG2-His10) or a simple C-terminal His6-tag (ARG2+C0021181 and ARG2+C0021158, SEQ ID NO: 357: huARG2-His6). Crystals suitable for structure determination were obtained using the sitting drop methodology. For ARG2+C0020187, 0.2 μl of complex solution (2.0 mg/ml, ARG2:Fab=3:1, purified by gel filtration) were mixed with 0.1 μl of crystallisation solution containing 2 M (NH4)2SO4. Round, disc-shaped crystals (60×60×20 μm) appeared after 2 days. For ARG2+C0021181, 0.5 μl of complex solution (6.3 mg/ml) were mixed with 0.5 μl of a crystallisation solution containing 100 mM MMT (malic acid:MES:tris=1:2:2) pH 5.0, 20% glycerol, 10% PEG4000, 15 mM NaNO3, 15 mM Na2HPO4, 15 mM (NH4)2SO4. Hexagonal disc-shaped crystals (100×100×20 μm) appeared after 2 days and reached their final size after a week. For ARG2+C0021158, 0.25 μl of complex solution (7.0 mg/ml, containing 20% diluted microseeds of an ARG2+C0021181 crystal) were mixed with 0.25 μl of a crystallisation solution containing 2 M (NH4)2SO4. Crystals of irregular shape (60×60×60 μm) appeared after 2 days. For the ARG2+C0020187 and ARG2+C0021158 crystals, 3 M (NH4)2SO4 and 5% glycerol were added for cryo-protection, after which the crystals were cryo-cooled by plunging them into liquid N2. […]

B1: C0020187: anti-ARG2 antibody, parent lead isolation clone, VH SEQ ID NO: 12, VL SEQ ID NO: 17 (antibody, listed as Homo sapiens, V domains shown)
VH: [about 100 residues not given here]LRADLGLYMDLWGRGTLVTVSS
VL: QSVLTQPPSVSAAPGQKVTISCSGSSSNIGNHYVSWYQQLPGTAPKLLIYDNSERPSGIPDRFSGSKSGTSATLGITGLQTGDEADYYCGTWDSSLSALVFGGGTKLTVL
modifications: C0020187
% buried: 39%
